Test results: PubChem BioAssay AID1159614 (National Center for Advancing Translational Sciences (NCATS), 2016)
Among all 45,000 compounds or so, about 65 (0.1%) were called active. Calls follow the shape of the dose curve; as a rule, active = well fitted activation curve with a large enough effect; inconclusive = small, poorly fitted or top-dose-only effect; inactive = no such curve, though single readings can be large or run the other way. The list shows a part of the results.

Molecular target: Galactocerebrosidase (Homo sapiens) (UniProt P54803)
Test: A Novel Cell-Based Assay to Identify Small Molecules for B -Galactocerebrosidase; also: 0% is about no effect; nearly all actives have a fitted effect of over 65% in size
Details: 145M-Twi-hGALC-G270D cells (Twitcher mouse brain line with human GALC G270D), HMU-beta-Gal fluorescence, 48 h; series mostly up to 57.5 µM; activation: at the top concentration
Method in brief: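 Fluorescence readout: HMU-β-gal cleavage by mutant GALC (0.1 mM final, citrate/phosphate pH 5.2 with 1 mg/mL taurocholate), stopped with carbonate/bicarbonate plus Triton X-100. Cells: murine Twitcher 145M-Twi expressing human G270D GALC; qHTS for activators.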

Sequence of UniProt P54803 (P54803 whole entry, looked up): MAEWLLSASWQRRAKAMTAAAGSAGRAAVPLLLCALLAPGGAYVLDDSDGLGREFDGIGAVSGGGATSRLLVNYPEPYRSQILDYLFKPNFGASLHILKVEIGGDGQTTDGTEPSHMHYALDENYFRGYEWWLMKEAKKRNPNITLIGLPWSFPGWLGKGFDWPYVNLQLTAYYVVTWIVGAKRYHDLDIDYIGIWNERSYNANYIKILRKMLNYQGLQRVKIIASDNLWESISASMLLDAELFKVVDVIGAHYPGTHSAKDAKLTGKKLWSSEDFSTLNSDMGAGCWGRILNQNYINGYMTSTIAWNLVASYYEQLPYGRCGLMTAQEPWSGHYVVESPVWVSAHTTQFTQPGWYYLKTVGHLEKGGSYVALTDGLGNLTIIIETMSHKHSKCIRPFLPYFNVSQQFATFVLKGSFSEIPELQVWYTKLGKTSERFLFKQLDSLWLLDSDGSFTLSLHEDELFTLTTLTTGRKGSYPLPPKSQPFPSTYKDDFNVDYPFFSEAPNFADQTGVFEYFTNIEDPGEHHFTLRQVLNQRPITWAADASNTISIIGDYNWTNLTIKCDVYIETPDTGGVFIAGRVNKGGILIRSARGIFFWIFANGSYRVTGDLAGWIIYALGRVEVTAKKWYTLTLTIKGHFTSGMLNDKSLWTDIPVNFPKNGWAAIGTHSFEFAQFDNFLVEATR

activation, inactive:
CCN1CCN(C(c2ccccc2Cl)c2sc3nc(-c4ccco4)nn3c2O)CC1 (centres undefined) 1.27%
Cc1ccc2c(c1)cc1c(=O)n(Cc3ccccc3Cl)nc(C)n12 -11%
O=C(CCSCCc1ccccn1)Nc1ccc(Cl)cc1 -6.87%
Cc1ccc2c(C)c(C(=O)N(Cc3ccc(N(C)C)cc3)Cc3ccco3)oc2c1C -15.7%
O=C(Nc1ccc(Br)cc1)c1cc(S(=O)(=O)NC2CCCC2)ccc1F -12%
CCN(c1ccccc1)S(=O)(=O)c1nnc(NC(=O)C2CCCCC2)s1 -8.05%
COc1ccc2c(c1)c(N1CCCC1=O)c(C(=O)Nc1cc(C)c(Cl)cc1OC)n2C -23%
CCn1c(=O)c2sccc2n2c(CCC(=O)Nc3ccc(F)cc3)nnc12 -2.83%
COc1cc(-n2c(=O)c3ccccc3n(Cc3cccc(Cl)c3)c2=O)cc(OC)c1OC -1.4%
CCOC(=O)c1c(C)[nH]c(CCC(=O)NCc2cc(OC)c(OC)c(OC)c2)c1C -13.1%
Cc1cc2oc(=O)c(CC(=O)O)c(C)c2c2occ(-c3ccccc3)c12 -20.3%
Cc1ccc(C)c(Cn2c(=O)n(-c3ccccc3)c(=O)c3c4c(sc32)CCCC4)c1 0.156%
COc1ccc(CCN2C(=O)N(c3cccc(OC)c3)C(=O)C2CC(=O)Nc2ccccc2)cc1 (centres undefined) -16.5%
COc1ccc(-c2onc(C)c2C)cc1S(=O)(=O)NCCc1ccccc1 9.41%
Oc1c(C(c2ccccc2)N2CCCC2)sc2nc(-c3ccco3)nn12 (centres undefined) -9.59%
CCOC(=O)Cc1ccc(NC(=O)NC(C)c2c(-n3cccc3)sc(C)c2C)cc1 (centres undefined) -0.955%
CCNC(=O)CC1C(=O)N(c2ccc(C)cc2)C(=O)N1CCOC (centres undefined) 0.748%
COc1ccc(CNC(=O)CN2C(=O)CCn3nc(-c4cn(C)c5ccccc45)cc32)cc1 -16.1%
COc1nnc(-c2ccc(N3CCCCC3)c(NC(=O)c3ccc(C)cc3)c2)c2ccccc12 -0.188%
O=C(c1cccc([N+](=O)[O-])c1)N1CCN(c2ccc(Nc3ccccc3)nn2)CC1 -9.23%
CCOC(=O)c1c(S(=O)(=O)N2CCC(C(=O)Nc3ccc(C)c(Cl)c3)CC2)c(C)n(C)c1C -5.36%
CC[N+](CC)(CC)CCOC(=O)C(C1CCCC1)C1CCCC1 -6.38%
O=C(c1ccc2c(c1)N(Cc1cccc(Cl)c1)C(=O)c1ccccc1S2=O)N1CCC(Cc2ccccc2)CC1 (centres undefined) -17.6%
COc1ccc(OC)c(NC(=O)CSC2=Nc3ccccc3C3=NC(CC(=O)NCCc4ccccc4)C(=O)N23)c1 (centres undefined) -11%
CCOc1cccc(CNCCCSc2nnnn2C)c1 -10.9%
CCOc1ccc(NC(=O)CCCn2c(C)c3cnn(-c4ccccc4)c(=O)c3c2C)cc1 -13.8%
CCn1nc(C)c2c(-c3ccccc3)cc(=O)n(C(C)C(=O)NCCc3ccc(Cl)cc3)c21 (centres undefined) -18.1%
O=S(=O)(c1ccc(-c2cnc(C3CC3)o2)cc1)N1CCN(c2ccc(F)cc2)CC1 -17.1%
COc1cc(NC(=O)C2CCN(c3cnccn3)CC2)cc(OC)c1 -9.75%
O=C(Cn1c(=O)n(Cc2ccco2)c(=O)c2oc3ccccc3c21)Nc1ccccc1 -12.3%
COc1cccc(-c2cn3c(n2)sc2cc(C(=O)NC4CCCCC4)ccc23)c1 -22%
CCN(CCCNC(=O)c1cc2c(=O)n(C)c3ccccc3c2s1)c1ccccc1 -7.42%
CCc1ccccc1Nc1nn2c(=O)c3ccc(C(=O)NC(C)C)cc3nc2s1 -12.6%
COc1ccccc1NC(=O)CN1C(=O)C(c2ccc(F)cc2)=NC12CCCCC2 -13.3%
COc1ccccc1N1CCN(C(=O)C2CCN(S(=O)(=O)c3cn(C)cn3)CC2)CC1 -18.8%
COc1ccc(-c2cc(=O)c3c(O)cc(O[C@@H]4O[C@H](CO[C@@H]5O[C@@H](C)[C@H](O)[C@@H](O)[C@H]5O)[C@@H](O)[C@H](O)[C@H]4O)cc3o2)cc1O -14.3%
CCCCc1ccc(NS(=O)(=O)c2cc3c4c(c2)CC(=O)N4CCC3)cc1 -3.04%
COc1cccc(N2CCN(C(=O)c3cnn(-c4ccccc4Cl)c3C3CCN(C(=O)OC(C)(C)C)CC3)CC2)c1 -16.1%
CCc1ccc2oc(-c3cc(NC(=O)c4cc(OC)c(OC)c(OC)c4)ccc3O)nc2c1 -17.2%
CCOCCCNC(=O)c1ccc2c(=O)n(CCc3ccccc3)c(=O)[nH]c2c1 -18.2%
CC(=O)c1ccc(NC(=O)CSc2nc(=O)n(Cc3ccccn3)c3c2CCC3)cc1 -6.07%
COc1cccc(NC(=O)C2CCC(CNS(=O)(=O)c3csc(C(N)=O)c3)CC2)c1 (centres undefined) -17.6%
CCC(=O)N1CCc2cc(S(=O)(=O)NC(CC(C)C)C(=O)Nc3cccc(C)c3C)ccc21 (centres undefined) -6.39%
COc1ccccc1C(=O)n1nc(-c2ccccc2)nc1NCc1ccc(Cl)cc1 -31.3%
O=C(CCc1ccccc1)NC1CC(=O)N(c2cccc(F)c2)C1 (centres undefined) -18%
CN(C)c1ccc(CNC(=O)CN2C(=O)C3CCCCN3c3ccc(C(=O)N4CCCC4)cc32)cc1 (centres undefined) -4.82%
Cc1ccc(NS(=O)(=O)c2ccc3oc(=O)c4ncn(C)c4c3c2)cc1C -3.83%
COc1ccc(CCNc2ncnc3c2cnn3-c2ccc(C)c(Cl)c2)cc1 -16.9%
COc1ccc(OCC(O)Cn2c(=N)n(CCN3CCCCC3)c3ccccc32)cc1 (centres undefined) -23.8%
O=C(CCC1N=C2c3ccccc3N=C(SCc3ccc(Cl)cc3)N2C1=O)NCc1cccs1 (centres undefined) -3.15%
CCC(C)NC(=O)c1cc2n(n1)CCCN(Cc1ccc(C)cc1)C2=O (centres undefined) -16.2%
Cc1ccc(S(=O)(=O)C(CNC(=O)C(=O)NCCc2ccc(Cl)cc2)c2ccco2)cc1 (centres undefined) -16.2%
Cc1ccc(N2CCN(C(=O)c3cccn4c(=O)c5ccc(Cl)cc5nc34)CC2C)cc1 (centres undefined) -21.1%
Cc1c2cnn(CC(=O)NCc3ccc(Cl)cc3)c(=O)c2c(C)n1Cc1ccc(F)cc1 -5.74%
COc1ccc(CCNS(=O)(=O)c2c(C)nc3sccn3c2=O)cc1OC -0.0078%
O=C(Cc1ccc(F)cc1)NCCc1csc2nc(-c3ccccc3F)nn12 -10.6%
Cc1ccc(Nc2nc(N)nc(CSc3nc4ccccc4s3)n2)cc1 -6.74%
COc1ccc(C(CNC(=O)c2oc3cc(C)c(C)cc3c2C)N2CCCCC2)cc1 (centres undefined) -7.51%
CCn1cc(C(=O)N2CCN(c3ccccc3)CC2)c(=O)c2cc(S(=O)(=O)N(C)C)ccc21 -24.4%
Cc1cc(C)cc(NC(=O)CSc2ccc(-c3cccs3)nn2)c1 -6.52%
Cc1cc(NS(=O)(=O)c2ccc(NC(=O)COc3ccccc3Br)cc2)no1 -11.8%
Cc1ccccc1Nc1nn2c(=O)c3ccc(C(=O)NCc4cccs4)cc3nc2s1 -20.9%
COc1cc(NS(=O)(=O)c2ccc(NC(=O)c3ccc(Cl)cc3Cl)cc2)nc(OC)n1 -10.3%
Cc1ccc2nc(-c3ccc(NC(=O)COc4ccc(Br)cc4Br)cc3)sc2c1 -3.24%
CNC(=O)c1c(NC(=O)/C=C/c2ccccc2)sc2c1CCC2 -0.778%
O=C(NCc1ccc(F)cc1)C(=O)NCC(c1ccc2c(c1)OCO2)N1CCOCC1 (centres undefined) -15.7%
COc1ccc(NC(=O)C2CCCN(S(=O)(=O)c3c(C)[nH]c(=O)[nH]c3=O)C2)c(OC)c1 (centres undefined) -22.6%
COc1ccc(C(=O)N(Cc2ccco2)Cc2ccc(C)o2)cc1 -11.5%
Cc1cccc(-c2nc3nc(C)cc(NC(C)c4ccccc4)n3n2)c1 (centres undefined) -31.4%
CCc1ccc(NCc2cc3cc4c(cc3n(CC(=O)Nc3ccccc3C)c2=O)OCCO4)cc1 0.33%
Cc1ccccc1NC(=O)/C(C#N)=C/c1ccc(Cl)cc1Cl -32.8%
Cc1nn2c(C)c(C(=O)NCCc3ccccc3)cnc2c1-c1ccccc1 -4.56%
CCOC(=O)c1ccc(NC(=O)CC(=O)Nc2ccc3nc4n(c(=O)c3c2)CCCCC4)cc1 -5.21%
CCOc1ccc(NC(=O)Cn2nnc(-c3nc(-c4ccncc4)no3)c2N)cc1 -13.1%
COc1ccc(Br)cc1CNC(=O)CN1C(=O)c2cccnc2Oc2ccc(C)cc21 3.81%
Cc1ccc2oc(C(=O)Nc3ccc(S(=O)(=O)Nc4nccc(C)n4)cc3)cc(=O)c2c1 -11%
CC(C)c1ccc(N(CC(=O)O)S(=O)(=O)c2ccc3[nH]c(=O)c(=O)[nH]c3c2)cc1 5.97%
Cc1ccc(S(=O)(=O)Cc2nc(-c3ccc(C(=O)NCCCOC(C)C)cc3)oc2C)cc1 -15.3%
Cc1ccc2ncc3c(-c4ccc(F)cc4)nn(CC(=O)Nc4ccccc4C)c3c2c1 -14.8%
O=C(NCC1CCN(Cc2ccccc2F)CC1)Nc1ccc(F)c(Cl)c1 -18.8%
COc1ccc(-c2nc3sc(CCNS(=O)(=O)c4ccccc4)c(C)n3n2)cc1 -20.1%
O=C1c2[nH]nc(-c3ccc(F)cc3)c2C(c2ccccc2F)N1c1ccccc1 (centres undefined) -25.5%
Cc1ccc2[nH]c3c(=O)n(CC(=O)Nc4ccc(Br)cc4C)ncc3c2c1 -11.5%
CSc1ccc(CCNC(=O)CCCn2c(=O)c3cccn3c3ccccc32)cc1 -15.6%
CCOc1ccc(C(=O)Nc2cc3c(cc2N2CCCC2)n(C)c(=O)c(=O)n3C)cc1OCC -16.7%
CSc1ncc2c(n1)-c1ccccc1N(Cc1ccccc1)S2(=O)=O -9.19%
Fc1ccc(Nc2nc3ccccc3n3cnnc23)c(F)c1 -24.8%
CC(C)(C)c1ccc(C(=O)Nc2c(C(=O)c3ccc(F)cc3)oc3ccccc23)cc1 -5.88%
Cc1nc2nc(CNC(=O)c3cccc(F)c3)nn2c(C)c1CCC(=O)Nc1cccc(Cl)c1 -12.3%
Cc1nn(C(C)C(=O)Nc2ccccc2C(F)(F)F)c(=O)c2c1sc1ccccc12 (centres undefined) 17.8%
Cc1ccc(N(CC(C)C)S(=O)(=O)c2nnc(NC(=O)C(C)C)s2)cc1 -14.3%
COc1ccccc1CNC(=O)COCc1cc(-c2cccs2)on1 -20.3%
COc1ccc(Oc2nc3c(c(=O)n(Cc4ccc(Br)cc4)c(=O)n3C)n2C)cc1 -18.8%
CCSc1nc2ccccc2c(OCc2ccccc2Cl)c1C(=O)OC -16.5%
